Source: US20240043543A1, “ANTI-GALECTIN-9 ANTIBODIES AND THERAPEUTIC USES THEREOF” (New York University, priority 2020, published 2024)
Entries after “also recorded” stand apart in the source; their conditions may differ.

Experiments:
[1] = Once weekly intravenous injection toxicity study in Sprague Dawley rats; type: in vivo; details: IV once weekly for a total of 5 doses, 100 and 300 mg/kg
Experimental: The objective of this study was to evaluate potential toxicity of G9.2-17, an IgG4 human monoclonal antibody directed against galectin-9 at different doses, when administered by intravenous injection to Sprague Dawley Rats once weekly for 4 consecutive weeks followed by a 3-week post dose recovery period. In addition, the toxicokinetic characteristics of G9.2-17 were determined.
One hundred eighty-six animals (Sprague Dawley rats) were assigned to treatment groups randomly by body weight. Control Article/Vehicle, Formulation Buffer for Test Article, and test article, G9.2-17, were administered via a single IV injection in a tail vein at dose levels of 0, 100, and 300 mg/kg once on Days 1, 8, 15, 22, and 29. […]
Clinical observations were performed once daily prior to room cleaning in the morning, beginning on the second day of acclimation. […] The average gram (g)/animal/day was calculated from the weekly food consumption. […] Functional Observation Battery (FOB) observations were recorded for SSB animals approximately 24 hours post dose administrations on Days 1, 35 and 49. […]
Parameters assessed during the In-life examinations of the study included clinical observations, food consumption, body weights, functional observational battery. […] At each necropsy, gross observations and organ weights were recorded, and tissues were collected for microscopic examination.

[2] = test system: orthotopic KPC models; experiment: Orthotopic KPC models, tumor growth and survival
[3] = test system: M2 macrophages; experiment: Inhibition of polarization and repolarization of M2 macrophages (TGF-beta1, IL-10 secretion); type: cell-based, human; details: G9.2-17 20 μg/ml
Description: Whole blood from three healthy human donors was used to isolate CD14+ monocytes. The monocytes were allowed to differentiate to macrophages in X-VIVO-15 media (Lonza) in a 10 cm tissue culture dish for 7 days. The differentiated macrophages were either used directly for assessing inhibition of polarization, or they were cryopreserved and used at a later time for repolarization assays. Prior to use in an assay, the M0 macrophages were phenotyped.
Two different polarization cocktails were used to evaluate macrophage polarization: one with a mixture of IL-4 and IL-13, and a second containing only gal-9. The effect of G9.2-17 on M2 polarization was tested via its direct addition to one of these cocktails, and incubation with macrophages for 48 hours. The effect of G9.2-17 on repolarization of M2 macrophages was tested via addition to the M2-polarized macrophages.
The state of polarization was identified by the measurement of secretion of either IL-10 (repolarization) or TGF-beta1 (inhibition of polarization and repolarization). These factors were quantified in cell culture supernatants using CytoMetric Bead Arrays following the manufacturer's protocol.

[4] = Non-GLP single-dose range-finding intravenous infusion toxicity study in cynomolgus monkeys; type: in vivo
Description: The animals were placed in sling restraints during dosing.
(§1) Bone marrow smears were collected and preserved.
Formalin was infused into the lung via the trachea.
Paired organs were weighed together.

[5] = Once weekly intravenous infusion toxicity study for 5 weeks in cynomolgus monkeys; type: in vivo; details: once weekly IV infusion of 100 and 300 mg/kg for 5 weeks
Experimental: Males and females were randomized separately.
Electrocardiographic examinations were performed on all animals.
as §1
Soluble galectin-9 was evaluated as follows.
Soluble galectin-9 samples were processed as follows.

[6] = Non-GLP single-dose range-finding intravenous toxicity study in rats; type: in vivo

B1: G9.2-17: anti-Galectin-9 fully human antibody, VH SEQ ID NO:7, VL SEQ ID NO:8; used as IgG4 (heavy chain SEQ ID NO:19, light chain SEQ ID NO:15) (antibody)
heavy: EVQLVESGGGLVQPGGSLRLSCAASGFTVSSSSIHWVRQAPGKGLEWVAYISSSSGYTYYADSVKGRFTISADTSKNTAYLQMNSLRAEDTAVYYCARYWSYPSWWPYRGMDYWGQGTLVTVSSASTKGPSVFPLAPCSRSTSESTAALGCLVKDYFPEPVTVSWNSGALTSGVHTFPAVLQSSGLYSLSSVVTVPSSSLGTKTYTCNVDHKPSNTKVDKRV[sequence of human IgG4 Fc with S228P L445P (EU numbers) not given]
light: DIQMTQSPSSLSASVGDRVTITCRASQSVSSAVAWYQQKPGKAPKLLIYSASSLYSGVPSRFSGSRSGTDFTLTISSLQPEDFATYYCQQSSTDPITFGQGTKVEIKRTVAAPSVFIFPPSDEQLKSGTASVVCLLNNFYPREAKVQWKVDNALQSGNSQESVTEQDSKDSTYSLSSTLTLSKADYEKHKVYACEVTHQGLSSPVTKSFNRGEC
tolerability [1]: generally well tolerated | extended the survival of KPC animals ([2]; KPC animals): more than double | halts pancreatic tumor growth ([2]; orthotopic KPC models): 50% | TGF-beta1 secretion ([3]; donor macrophages with IL-4/IL-13 or gal-9 polarization cocktail, vs isotype control or untreated): abolished the IL-4/IL-13-dependent increase of TGF-β1 secretion; also recorded: potently inhibit | IL-10 secretion ([3]; repolarization of cryopreserved macrophages, IL-4/IL-13 or Gal-9 cocktail, vs untreated and IgG4 isotype): reduction of secreted IL-10; also recorded: potently inhibit | No-observed-Adverse-Effect-Level (NOAEL) ([4]; single 30-minute IV infusion, 30, 100, 200 mg/kg, highest dose level evaluated): 200 mg/kg | tolerability ([4]; single intravenous infusion of 30, 100, and 200 mg/kg): tolerated with no adverse findings | tolerability [5]: tolerated with no adverse findings | tolerability ([6]; single intravenous administration of 10, 30, and 70 mg/kg): tolerated with no adverse findings | NOEL ([6]; single intravenous bolus, male rats, 10, 30, 70 mg/kg): 70 mg/kg
